Assay [1] deals with HA-Smad7 (UniProt O15105). Kind of assay: co-IP; COS7 cells transfected with Flag-4CRU of Ahnak and HA-Smad7; serum starved 16 h, without or with 10 ng/ml TGFβ; precipitated with antibody to HA, blotted for Flag.
Assay [2] has as its target HA-Smad7 (UniProt O15105). Kind of assay: co-IP; COS7 cells co-transfected with GFP-tagged wild-type or mutant 4CRU and Myc-Smad3 (precipitated with antibody against GFP) or HA-Smad7 (precipitated with antibody against HA).
Assay [3] concerns the target Flag-tagged Smad2 (pCS4-3Flag-Smad2) (UniProt Q15796). Kind of assay: co-IP; COS7 cells transfected with HA-4CRU of Ahnak and Flag- or Myc-tagged Smads; lysates precipitated with antibody to Flag or Myc, blotted with antibody to HA.
Assay [4] deals with Myc-tagged Smad3 (pCS-Myc-Smad3) (UniProt P84022). The assay is described as above.
Assay [5] has as its target Flag-tagged Smad1 (pCS4-3Flag-Smad1) (UniProt Q15797). Described as above.
Assay [6] has as its target Flag-tagged Smad4 (pCS2-Flag-Smad4) (UniProt Q13485). The assay is described as above.
Assay [7] deals with endogenous Smad3 (NIH3T3 cells) (mouse (endogenous in NIH3T3)) (UniProt Q8BUN5). Kind of assay: co-IP; NIH3T3 cells transfected with pcDNA3-HA-4CRU of Ahnak, without or with 10 ng/ml TGFβ; lysates precipitated with anti-Smad3 antibody (endogenous Smad3).
The target of assay [8] is pLexA-CRU (amino-acid residues 4105–4633) of Ahnak (human) (UniProt Q09666). Kind of assay: two-hybrid; directed test in EGY48/p80-lacZ yeast; pLexA-CRU (4105–4633) of Ahnak with Smad constructs; growth on SD/Gal/Raf/Ura-Trp-His-Leu- plates (Leu2 reporter).
The target in assay [9] is GFP-tagged mutant 4CRU of Ahnak (valine 4607 to methionine) (human) (UniProt Q09666). Kind of assay: co-IP; COS7 cells co-transfected with GFP-tagged wild-type or mutant 4CRU and Myc-Smad3 (precipitated with antibody against GFP) or HA-Smad7 (precipitated with antibody against HA).
Assay [10] concerns the target GFP-tagged wild-type 4CRU of Ahnak (human) (UniProt Q09666). Described as above.
The target of assay [11] is T1, CDK4 (endogenous, NIH3T3 cells) (mouse (endogenous in NIH3T3)) (UniProt P30285).
T1 sequence: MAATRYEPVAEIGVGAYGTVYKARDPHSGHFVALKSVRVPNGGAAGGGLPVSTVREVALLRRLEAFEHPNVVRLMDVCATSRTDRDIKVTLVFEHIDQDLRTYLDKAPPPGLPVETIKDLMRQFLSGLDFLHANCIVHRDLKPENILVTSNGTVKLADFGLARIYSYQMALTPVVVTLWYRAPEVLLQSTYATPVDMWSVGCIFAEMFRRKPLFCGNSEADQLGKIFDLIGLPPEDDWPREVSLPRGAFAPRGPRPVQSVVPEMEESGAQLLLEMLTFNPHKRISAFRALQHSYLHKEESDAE
Kind of assay: co-IP; endogenous proteins; lysates of NIH3T3 and NIH3T3/Ahnak cells precipitated with antibodies against cyclin D2 or CDK4, immunoblot. Background: In western blotting, separated proteins are transferred to a membrane and probed.

Chains of the proteins cited; added tags and fusions are not shown. Lines headed by an entry give the natural chain unless they say otherwise; changes in a name come on top. A line that says so, or that is headed by a name, gives the form on record, which may keep a tag or linker. Residues count along the entry.
UniProt O15105: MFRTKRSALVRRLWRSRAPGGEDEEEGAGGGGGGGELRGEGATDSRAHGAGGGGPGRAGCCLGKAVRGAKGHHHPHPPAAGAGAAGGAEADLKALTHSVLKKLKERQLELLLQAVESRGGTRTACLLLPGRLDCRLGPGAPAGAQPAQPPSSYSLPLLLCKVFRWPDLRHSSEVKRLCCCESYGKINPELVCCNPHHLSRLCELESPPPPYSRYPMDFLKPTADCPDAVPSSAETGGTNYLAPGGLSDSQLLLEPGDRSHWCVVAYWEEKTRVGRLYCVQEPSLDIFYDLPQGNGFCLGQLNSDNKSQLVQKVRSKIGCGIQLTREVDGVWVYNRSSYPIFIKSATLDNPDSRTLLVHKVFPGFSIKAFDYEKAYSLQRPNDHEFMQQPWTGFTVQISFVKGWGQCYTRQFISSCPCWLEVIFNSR
UniProt Q15796: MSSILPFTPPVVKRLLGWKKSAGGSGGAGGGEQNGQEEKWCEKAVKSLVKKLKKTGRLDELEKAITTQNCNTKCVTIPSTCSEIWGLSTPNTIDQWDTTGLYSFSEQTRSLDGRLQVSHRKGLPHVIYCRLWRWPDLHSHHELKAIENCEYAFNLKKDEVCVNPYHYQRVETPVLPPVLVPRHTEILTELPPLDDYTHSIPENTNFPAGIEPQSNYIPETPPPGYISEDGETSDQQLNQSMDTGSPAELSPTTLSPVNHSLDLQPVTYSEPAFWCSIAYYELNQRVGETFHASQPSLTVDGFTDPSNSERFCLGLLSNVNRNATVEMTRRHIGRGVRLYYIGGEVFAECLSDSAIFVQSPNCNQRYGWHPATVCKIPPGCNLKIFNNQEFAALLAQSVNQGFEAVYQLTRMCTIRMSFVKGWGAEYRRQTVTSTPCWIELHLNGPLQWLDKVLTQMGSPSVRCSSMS
UniProt P84022: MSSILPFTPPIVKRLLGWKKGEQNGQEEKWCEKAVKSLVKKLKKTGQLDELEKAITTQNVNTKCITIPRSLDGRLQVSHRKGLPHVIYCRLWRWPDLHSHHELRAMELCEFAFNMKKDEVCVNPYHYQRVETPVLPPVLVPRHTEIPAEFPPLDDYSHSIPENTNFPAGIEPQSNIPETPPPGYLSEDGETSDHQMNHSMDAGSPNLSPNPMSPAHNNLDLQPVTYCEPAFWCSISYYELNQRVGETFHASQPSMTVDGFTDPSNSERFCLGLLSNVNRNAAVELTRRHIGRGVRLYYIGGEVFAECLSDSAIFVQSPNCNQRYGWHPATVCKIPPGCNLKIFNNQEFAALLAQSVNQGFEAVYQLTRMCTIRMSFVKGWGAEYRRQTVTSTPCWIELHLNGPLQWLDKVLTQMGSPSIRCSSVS
UniProt Q15797: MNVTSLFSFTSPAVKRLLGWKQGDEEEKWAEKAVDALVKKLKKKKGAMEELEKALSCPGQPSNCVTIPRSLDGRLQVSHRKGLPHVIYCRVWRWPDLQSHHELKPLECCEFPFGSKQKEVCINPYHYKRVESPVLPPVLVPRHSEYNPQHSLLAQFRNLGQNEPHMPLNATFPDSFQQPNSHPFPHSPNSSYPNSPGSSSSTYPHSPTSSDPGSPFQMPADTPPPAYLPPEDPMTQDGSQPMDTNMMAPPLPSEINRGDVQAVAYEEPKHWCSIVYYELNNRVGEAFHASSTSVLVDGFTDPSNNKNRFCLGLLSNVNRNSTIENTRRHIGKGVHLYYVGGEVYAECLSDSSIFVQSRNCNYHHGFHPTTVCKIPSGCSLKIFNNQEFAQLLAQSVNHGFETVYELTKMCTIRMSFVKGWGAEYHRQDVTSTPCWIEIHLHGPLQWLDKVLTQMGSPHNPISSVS
UniProt Q13485: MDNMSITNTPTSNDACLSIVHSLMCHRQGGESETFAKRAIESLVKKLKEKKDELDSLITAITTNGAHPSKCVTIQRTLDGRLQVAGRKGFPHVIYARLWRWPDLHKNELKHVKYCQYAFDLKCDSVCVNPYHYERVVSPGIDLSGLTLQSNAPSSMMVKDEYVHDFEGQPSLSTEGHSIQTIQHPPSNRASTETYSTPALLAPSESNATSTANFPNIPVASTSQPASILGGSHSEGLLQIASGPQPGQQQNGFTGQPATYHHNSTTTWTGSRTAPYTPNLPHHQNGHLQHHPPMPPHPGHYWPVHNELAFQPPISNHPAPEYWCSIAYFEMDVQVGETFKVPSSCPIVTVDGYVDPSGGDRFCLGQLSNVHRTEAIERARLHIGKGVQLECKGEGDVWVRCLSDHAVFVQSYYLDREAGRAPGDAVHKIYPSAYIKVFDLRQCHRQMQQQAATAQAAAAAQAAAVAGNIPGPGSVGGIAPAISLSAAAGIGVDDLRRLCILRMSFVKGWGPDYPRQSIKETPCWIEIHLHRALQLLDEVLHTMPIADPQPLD
UniProt Q8BUN5: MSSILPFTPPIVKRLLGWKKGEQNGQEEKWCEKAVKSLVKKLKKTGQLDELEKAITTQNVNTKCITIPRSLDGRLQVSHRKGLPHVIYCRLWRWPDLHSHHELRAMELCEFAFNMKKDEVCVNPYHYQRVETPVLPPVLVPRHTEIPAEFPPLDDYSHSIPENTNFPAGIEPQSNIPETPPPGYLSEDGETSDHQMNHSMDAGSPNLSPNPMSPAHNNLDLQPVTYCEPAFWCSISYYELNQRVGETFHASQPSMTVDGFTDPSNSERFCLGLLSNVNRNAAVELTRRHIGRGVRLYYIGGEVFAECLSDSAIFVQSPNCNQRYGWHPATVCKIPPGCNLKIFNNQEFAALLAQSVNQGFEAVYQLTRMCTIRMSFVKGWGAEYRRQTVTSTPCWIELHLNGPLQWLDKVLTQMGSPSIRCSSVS
pLexA-CRU (amino-acid residues 4105–4633) of Ahnak (Q09666, residues 4105-4633): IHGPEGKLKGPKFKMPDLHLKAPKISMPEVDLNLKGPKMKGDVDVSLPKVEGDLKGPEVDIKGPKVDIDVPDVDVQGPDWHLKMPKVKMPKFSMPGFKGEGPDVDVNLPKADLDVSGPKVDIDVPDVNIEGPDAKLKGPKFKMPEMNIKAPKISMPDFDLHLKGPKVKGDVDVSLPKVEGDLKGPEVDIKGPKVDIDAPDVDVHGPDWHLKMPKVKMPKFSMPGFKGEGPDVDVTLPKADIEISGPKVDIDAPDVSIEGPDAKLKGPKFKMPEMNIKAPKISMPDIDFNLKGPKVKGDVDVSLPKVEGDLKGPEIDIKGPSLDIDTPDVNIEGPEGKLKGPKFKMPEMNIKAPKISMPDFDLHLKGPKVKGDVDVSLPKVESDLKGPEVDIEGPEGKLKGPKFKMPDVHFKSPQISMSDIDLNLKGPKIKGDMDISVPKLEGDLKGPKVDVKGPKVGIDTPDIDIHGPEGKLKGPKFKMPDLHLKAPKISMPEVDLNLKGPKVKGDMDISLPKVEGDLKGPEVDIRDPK
GFP-tagged mutant 4CRU of Ahnak (valine 4607 to methionine) (Q09666, form named): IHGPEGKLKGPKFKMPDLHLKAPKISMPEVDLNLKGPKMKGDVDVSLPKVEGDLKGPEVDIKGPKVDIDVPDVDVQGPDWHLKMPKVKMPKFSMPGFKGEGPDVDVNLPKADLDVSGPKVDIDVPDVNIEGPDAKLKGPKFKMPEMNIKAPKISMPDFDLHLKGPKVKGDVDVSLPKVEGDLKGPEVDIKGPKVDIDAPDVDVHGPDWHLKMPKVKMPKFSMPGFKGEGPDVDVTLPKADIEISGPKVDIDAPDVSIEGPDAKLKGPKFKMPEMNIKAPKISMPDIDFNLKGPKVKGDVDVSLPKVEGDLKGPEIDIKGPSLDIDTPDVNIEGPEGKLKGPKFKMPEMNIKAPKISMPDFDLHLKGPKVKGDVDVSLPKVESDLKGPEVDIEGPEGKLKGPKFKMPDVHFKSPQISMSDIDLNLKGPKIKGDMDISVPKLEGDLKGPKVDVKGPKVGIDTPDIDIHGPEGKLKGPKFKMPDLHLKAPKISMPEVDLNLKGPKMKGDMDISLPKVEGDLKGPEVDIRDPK
UniProt P30280: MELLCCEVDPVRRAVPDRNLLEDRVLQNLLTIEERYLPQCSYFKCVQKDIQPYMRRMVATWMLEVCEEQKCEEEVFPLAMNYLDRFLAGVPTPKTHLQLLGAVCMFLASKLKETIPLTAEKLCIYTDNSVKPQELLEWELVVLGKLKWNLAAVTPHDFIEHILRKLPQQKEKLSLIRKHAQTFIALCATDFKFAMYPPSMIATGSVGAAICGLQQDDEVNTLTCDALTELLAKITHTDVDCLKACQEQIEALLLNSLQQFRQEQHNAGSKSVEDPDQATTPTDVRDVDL
UniProt P46414: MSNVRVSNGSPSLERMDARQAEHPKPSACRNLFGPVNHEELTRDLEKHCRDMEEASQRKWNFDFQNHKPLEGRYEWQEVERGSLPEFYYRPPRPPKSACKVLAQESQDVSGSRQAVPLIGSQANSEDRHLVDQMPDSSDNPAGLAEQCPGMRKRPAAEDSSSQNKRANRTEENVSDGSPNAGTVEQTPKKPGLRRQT

Assay [12] addresses cyclin D2 (endogenous, NIH3T3 cells) (mouse (endogenous in NIH3T3)) (UniProt P30280). The assay is described as above.

These are yes or no findings as the source states them, for the method shown. For some of these results: In cells and extracts the contact can be indirect. Some results given as binding are weak or reduced against the parent protein; the word gives no strength.

Regarding “Flag-4CRU of Ahnak (from UniProt Q09666 4105-4633) (domain or fragment)”, the binding entry in the assay with HA-Smad7 [1] was “binds”. As for “GFP-tagged mutant 4CRU of Ahnak (valine 4607 to methionine) (from UniProt Q09666 4105-4633) (domain or fragment)”, in the assay with HA-Smad7 [2], the binding entry was “binds”.

As to “GFP-tagged wild-type 4CRU of Ahnak (from UniProt Q09666 4105-4633) (domain or fragment)”, the binding result with HA-Smad7 [2] is recorded as “binds”. For “HA-tagged 4CRU of Ahnak (pcDNA3-HA-4CRU) in COS7 cells (from UniProt Q09666 4105-4633) (domain or fragment)”, the binding result in assay [3], in assay [4], in [5] and in [6] was “binds” throughout. For “HA-tagged 4CRU of Ahnak (pcDNA3-HA-4CRU) in NIH3T3 cells (from UniProt Q09666 4105-4633) (domain or fragment)”, the binding result in [7] is recorded as “binds”.

Take “MH1 domain (amino-acid residues 2–183) of Smad2, yeast two-hybrid construct (from UniProt Q15796 2-183) (domain or fragment)”: the binding entry in [8] is reported as “no binding”. As to “MH2 domain (amino-acid residues 269–468) of Smad2, yeast two-hybrid construct (from UniProt Q15796 269-467) (domain or fragment)”, in [8], the binding result was “binds”. As for “Myc-tagged Smad3 (pCS-Myc-Smad3) (from UniProt P84022 1-425)”, the binding result in assay [9] and in assay [10] was “binds” throughout. “Smad1 (yeast two-hybrid construct) (from UniProt Q15797 1-465)”: in assay [8], the binding result was “binds”.

For the molecule “Smad3 (yeast two-hybrid construct) (from UniProt P84022 1-425)”, the binding result in assay [8] is “binds”. The same measure, in the same setting: the same measure for “full length Smad2 (amino-acid residues 2–468), yeast two-hybrid construct (from UniProt Q15796 2-467)”: “binds”; for “linker region (amino-acid residues 180–273) of Smad2, yeast two-hybrid construct (from UniProt Q15796 180-273) (domain or fragment)”: “no binding”. “p27^Kip1 (endogenous, NIH3T3 cells) (from UniProt P46414 1-197)”: the binding result in assay [11] is reported as “binds”.

B1: p21^Waf/Cip (endogenous, NIH3T3 cells) (protein, UniProt P39689 1-159)
chain: MSNPGDVRPVPHRSKVCRCLFGPVDSEQLRRDCDALMAGCLQEARERWNFDFVTETPLEGNFVWERVRSLGLPKVYLSPGSRSRDDLGGDKRPSTSSALLQGPAPEDHVALSLSCTLVSERPEDSPGGPGTSQGRKRRQTSLTDFYHSKRRLVFCKRKP
On to B1, for which the binding entry in [11] was “binds”.

B2: CDK4 (endogenous, NIH3T3 cells) (enzyme, UniProt P30285 1-303)
chain: T1 sequence
As for B2, the binding entry in [12] is recorded as “binds”.

Values taken from PMC4180639.
